A lower IC50 marks a more sensitive line; a limit (>, <) means that the fit lies beyond the doses tested. For AUC the same curve is integrated over the 256-fold range of doses and scaled to a fraction: 1 means no effect, lower means more sensitive. Any top dose called inferred was derived from the fitted curves, not read from the paper.
Compound: CCCCCCCCCCCC1=C(O)C(=O)C=C(O)C1=O [Embelin]
Experiment: Viability of human cancer cell lines after 72 h of drug (GDSC screen)
Conditions: top dose 32 µM; top dose inferred
Experimental: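 Human cancer cell lines in 384-well plates, medium with 10% serum, drug for 72 h over a 256-fold dose range (nine 2-fold or five 4-fold steps up to the top dose). Adherent lines were fixed and stained with the nucleic acid dye Syto60, suspension lines read with resazurin; signal relative to control wells, capped at 0 and 100%. One two-parameter sigmoid per drug and line, fitted in a mixed model over all curves with the slope shared within a line.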

Cell Line | AUC | IC50
EB-3 (Burkitt lymphoma, suspension) | 0.803 | 19 µM
EBC-1 (lung squamous cell carcinoma, adherent) | 0.714 | 8.78 µM
EC-GI-10 (oesophagus, adherent) | 0.966 | > 32 µM
ECC10 (stomach, suspension) | 0.878 | > 32 µM
EFM-19 (breast, adherent) | 0.645 | 6.22 µM
EFM-192A (breast, adherent) | 0.671 | 6.35 µM
EFO-21 (ovary, adherent) | 0.796 | 23.1 µM
EFO-27 (ovary, adherent) | 0.806 | 21.4 µM
EGI-1 (biliary tract, adherent) | 0.841 | > 32 µM
EHEB (lymphoid neoplasm, suspension) | 0.878 | > 32 µM
EJM (lymphoid neoplasm, semi-adherent) | 0.959 | > 32 µM
EKVX (lung adenocarcinoma, adherent) | 0.784 | > 32 µM
EM-2 (chronic myeloid leukaemia, suspension) | 0.872 | > 32 µM
EN (endometrium, adherent) | 0.815 | 23.9 µM
EPLC-272H (lung squamous cell carcinoma, adherent) | 0.877 | > 32 µM
ES1 (Ewing sarcoma, adherent) | 0.716 | 8.06 µM
ES3 (Ewing sarcoma, adherent) | 0.776 | 13.4 µM
ES4 (Ewing sarcoma, adherent) | 0.623 | 4.6 µM
ES5 (Ewing sarcoma, adherent) | 0.774 | 14.5 µM
ES6 (Ewing sarcoma, adherent) | 0.75 | 12.7 µM
ES7 (Ewing sarcoma, adherent) | 0.677 | 6.33 µM

Cell Line | AUC | IC50
ES8 (Ewing sarcoma, adherent) | 0.761 | 10.5 µM
ES-2 (ovary, adherent) | 0.918 | > 32 µM
ESS-1 (endometrium, adherent) | 0.734 | 8.54 µM
ETK-1 (biliary tract, adherent) | 0.735 | 10.4 µM
EVSA-T (breast, adherent) | 0.939 | > 32 µM
EW-1 (Ewing sarcoma, semi-adherent) | 0.888 | 31 µM
EW-3 (Ewing sarcoma, adherent) | 0.883 | > 32 µM
EW-7 (Ewing sarcoma, semi-adherent) | 0.831 | 16.9 µM
EW-11 (Ewing sarcoma, adherent) | 0.887 | > 32 µM
EW-13 (Ewing sarcoma, suspension) | 0.726 | 9.52 µM
EW-16 (Ewing sarcoma, adherent) | 0.625 | 4.49 µM
EW-18 (Ewing sarcoma, suspension) | 0.747 | 10.9 µM
EW-24 (Ewing sarcoma, semi-adherent) | 0.917 | > 32 µM
EoL-1-cell (haematopoietic neoplasm, suspension) | 0.664 | 5.37 µM
FADU (head and neck, adherent) | 0.787 | 13.4 µM
FTC-133 (thyroid, adherent) | 0.853 | 28.9 µM
FU97 (stomach, adherent) | 0.698 | 7.33 µM
FU-OV-1 (ovary, adherent) | 0.779 | 17.5 µM
Farage (B-cell lymphoma, suspension) | 0.745 | 8.55 µM
G-292 Clone A141B1 (osteosarcoma, adherent) | 0.86 | > 32 µM
G-361 (melanoma, adherent) | 0.685 | 6.44 µM

Cell Line | AUC | IC50
G-401 (kidney, adherent) | 0.724 | 9.3 µM
G-402 (soft tissue, adherent) | 0.757 | 14.5 µM
G-MEL (melanoma, adherent) | 0.862 | 26.7 µM
GAK (melanoma, adherent) | 0.733 | 8.86 µM
GAMG (glioma, adherent) | 0.743 | 10.4 µM
GB-1 (glioma, adherent) | 0.652 | 5.71 µM
GCIY (stomach, adherent) | 0.725 | 9.56 µM
GCT (soft tissue, adherent) | 0.798 | 14 µM
GDM-1 (acute myeloid leukaemia, suspension) | 0.874 | 28.9 µM
GI-1 (glioma, adherent) | 0.618 | 4.16 µM
GI-ME-N (neuroblastoma, adherent) | 0.903 | > 32 µM
GMS-10 (glioma, adherent) | 0.791 | 14.3 µM
GOTO (neuroblastoma, adherent) | 0.85 | 29.6 µM
GP5d (large intestine, adherent) | 0.735 | –
GR-ST (lymphoblastic leukaemia, suspension) | 0.687 | 7.51 µM
GRANTA-519 (B-cell lymphoma, suspension) | 0.873 | 25.6 µM
GT3TKB (stomach, adherent) | 0.612 | 3.91 µM
H4 (glioma, adherent) | 0.636 | 4.72 µM
H9 (lymphoid neoplasm, suspension) | 0.913 | > 32 µM
H290 (mesothelioma, adherent) | 0.698 | 6.81 µM
H513 (mesothelioma, semi-adherent) | 0.927 | > 32 µM

Cell Line | AUC | IC50
H2369 (mesothelioma, adherent) | 0.815 | 18.3 µM
H2373 (mesothelioma, adherent) | 0.834 | 28.8 µM
H2461 (mesothelioma, adherent) | 0.777 | 16.2 µM
H2591 (mesothelioma, adherent) | 0.819 | 25.8 µM
H2595 (mesothelioma, adherent) | 0.857 | > 32 µM
H2722 (mesothelioma, adherent) | 0.779 | 15.7 µM
H2731 (mesothelioma, adherent) | 0.829 | 23.8 µM
H2795 (mesothelioma, adherent) | 0.66 | 5.53 µM
H2803 (mesothelioma, adherent) | 0.823 | 23.1 µM
H2804 (mesothelioma, adherent) | 0.771 | 13.5 µM
H2818 (mesothelioma, adherent) | 0.962 | > 32 µM
H2869 (mesothelioma, adherent) | 0.888 | > 32 µM
H3118 (head and neck, adherent) | 0.66 | 5.82 µM
H3255 (lung adenocarcinoma, adherent) | 0.827 | 24.9 µM
H-EMC-SS (chondrosarcoma, adherent) | 0.88 | > 32 µM
HA7-RCC (kidney, adherent) | 0.824 | 21.7 µM
HAL-01 (lymphoblastic leukaemia, suspension) | 0.887 | 28.5 µM
HARA (lung squamous cell carcinoma, adherent) | 0.8 | 18.6 µM

From the supplement of paper PMC4967469
